Consider twelve compounds from the antibiotic and cytotoxicity screens of Wong et al. (2023).

Structures are written as SMILES. Some of the results follow.

The subject of this assay is S. aureus RN4220. The experiment in a line: growth inhibition call (relative growth <= 0.2). The conditions noted are these: 50 µM.
`C[C@@H]1CN([C@H](C)CO)C(=O)c2cccc(NS(=O)(=O)c3ccc(Cl)cc3)c2O[C@@H]1CN(C)S(=O)(=O)c1cn(C)cn1`: the growth inhibition call was “inactive”.

On to `Cc1ccc(S(=O)(=O)N(C)C[C@@H]2Oc3ccc(NC(=O)Nc4cccc5ccccc45)cc3CC(=O)N([C@@H](C)CO)C[C@@H]2C)cc1`, for which the growth inhibition call was “inactive”. `C[C@H]1CN([C@@H](C)CO)C(=O)c2cc(NS(=O)(=O)c3ccc(Cl)cc3)ccc2O[C@@H]1CN(C)Cc1ccc(C(=O)Nc2ccccc2N)cc1`: the growth inhibition call is “inactive”.

As for `C[C@H](CO)N1C[C@H](C)[C@H](CN(C)S(=O)(=O)c2ccc(Cl)cc2)OCc2cnnn2CCCC1=O`, the growth inhibition call was “inactive”. The same measure for `C[C@@H]1CN([C@@H](C)CO)C(=O)c2cc(C#CC3(O)CCCC3)cnc2O[C@H]1CN(C)C(=O)Cc1ccncc1`: “inactive”; for `C[C@H]1CN([C@@H](C)CO)C(=O)c2cccc(NS(=O)(=O)c3cn(C)cn3)c2O[C@H]1CN(C)Cc1ccccc1`: “inactive”; for `O=C1OC(CO)C(O)C(O)C1O` (configuration not stated): “inactive”. The same measure for `Cc1ccc(S(=O)(=O)N(C)C[C@@H]2Oc3c(NC(=O)C4CCOCC4)cccc3C(=O)N([C@@H](C)CO)C[C@@H]2C)cc1`: “inactive”; for `C[C@H]1CN([C@@H](C)CO)C(=O)c2cccc(NC(=O)CCCCCC(=O)Nc3ccccc3N)c2O[C@H]1CN(C)Cc1ccc(Cl)c(Cl)c1`: “inactive”. The same measure for `O=c1cc(-c2ccccc2)[nH]c(=O)[nH]1`: “inactive”; for `CCCCOC(=O)[C@@H](N)CCC(=O)O`: “inactive”; for `C[C@@H]1CN([C@H](C)CO)C(=O)c2cccc(NS(C)(=O)=O)c2O[C@@H]1CN(C)S(=O)(=O)c1ccc(Cl)cc1`: “inactive”.
